This is one part of the list. Most values come without repeats; read them as rough.
Each compound was assayed on Salmonella enterica serovar Typhimurium SL1344 (assay: bacterial growth OD600 after 18 h in MHB with 0.5 µg/mL polymyxin B; higher = more bacterial growth (less inhibition)). Conditions: 25 µM; polymyxin B 0.5 µg/mL; system: broth.
Procedure: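 Secondary screen of the 553 primary hits at 25 µM. (i) S. Typhimurium SL1344 grown in Mueller-Hinton broth with 0.5 µg/mL polymyxin B, OD600 read after 18 h. (ii) SAFIRE assay: RAW 264.7 macrophages infected with S. Typhimurium sifB::gfp (MOI 30); compound added 2 h post-infection; cells fixed at 18 h; GFP-positive pixel fraction per macrophage imaged by confocal microscopy and expressed as % of DMSO control.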
With `Cc1cc(-c2cc(F)cc3c2OC(CNC(=O)c2ccco2)C3)ccc1F` (stereo not given) the “bacterial growth OD600” value was 0.
`O=C(c1cn(Cc2ccc(F)cc2)nn1)N1CC[C@@H]2CCCC[C@H]2C1` was tested, and the “bacterial growth OD600” value was -0.009.
`c1ccc(-c2ccc(-c3n[nH]cc3CN3CCN(c4ncccn4)CC3)cc2)cc1` was tested, and the “bacterial growth OD600” value was 0.003.
`COC(c1ccc2c(c1)CN(C(=O)C1Cc3ccccc3O1)CCO2)C1CCCCC1` (stereo not given) was tested, and the “bacterial growth OD600” value was 0.006.
For `O=C(CC(c1ccccc1)c1ccc2c(c1)OCO2)N1CCCO1` (stereo not given), the “bacterial growth OD600” value was 0.566.
With `CCOC(=O)C1(CCCc2ccccc2)CCN(C(=O)c2ccc(OC)o2)CC1` the “bacterial growth OD600” value was -0.001.
In the case of `COCc1noc(-c2ccc(N3CCC(c4ccccc4F)C3)nc2)n1` (stereo not given), the “bacterial growth OD600” value is reported as -0.002.
With `C=CCN(CC=C)c1ccc(-c2nc(-c3cccc(OC)c3OC)no2)cn1` the “bacterial growth OD600” value was -0.016.
In the case of `O=C(c1coc(COc2ccc3c(c2)OCO3)n1)N1CC[C@@H]2CCCC[C@H]2C1`, the “bacterial growth OD600” value is reported as 0.691.
In the case of `CN(Cc1cccnc1)C(=O)C1(N2CCCCC2)Cc2ccccc2C1`, the “bacterial growth OD600” value is reported as 0.003.
For `Cc1ccccc1CNC(=O)c1coc(COc2cccc(F)c2)n1`, the “bacterial growth OD600” value was 0.174.
`O=C(C1CC12CCCC2)N1CCc2[nH]nc(-c3ccc4c(c3)OCO4)c2C1` (stereo not given) was tested, and the “bacterial growth OD600” value was 0.005.
`COc1cccc(-c2ccccc2NC(=O)C2CCN(Cc3ccccc3)CC2)c1` was tested, and the “bacterial growth OD600” value was -0.008.
With `CN(C)c1ccccc1C(=O)N1CCCC(CO)(Cc2cccc(Cl)c2)C1` (stereo not given) the “bacterial growth OD600” value was -0.011.
With `CC(=O)N1CCN(C(=O)CC(c2ccccc2)c2cccc(Cl)c2)CC1` (stereo not given) the “bacterial growth OD600” value was 0.639.
For `CCN(Cc1ccccc1)C(=O)CC1(c2cccc(C(F)(F)F)c2)CC(=O)N(C2CC2)C1=O` (stereo not given), the “bacterial growth OD600” value was -0.015.
With `COc1cc(-c2nc(CN(CCO)Cc3cccs3)c(C)o2)ccc1F` the “bacterial growth OD600” value was 0.004.
For `COc1cccc(C2c3[nH]c4ccccc4c3CCN2Cc2ccco2)c1OC` (stereo not given), the “bacterial growth OD600” value was 0.008.
In the case of `COc1cccc(CNCc2c(C(=O)N3CCCCCCC3)nc3ccc(Cl)cn23)c1`, the “bacterial growth OD600” value is reported as 0.081.
In the case of `Fc1cccc(C2CCN(CC3CC3)c3ccccc3S2)c1` (stereo not given), the “bacterial growth OD600” value is reported as 0.066.
In the case of `OC(Cc1ccccc1)c1ccc2c(c1)CN(Cc1ccc(OC(F)F)cc1)CCO2` (stereo not given), the “bacterial growth OD600” value is reported as -0.001.
For `O=C(CN1CC(c2ccccc2)CC1=O)N(Cc1ccncc1)Cc1cccc(OCCc2ccc(F)cc2)c1` (stereo not given), the “bacterial growth OD600” value was -0.005.
`Cc1ccccc1-c1nc(CN2CCOc3ccc(Cl)cc3C2)c(C)o1` was tested, and the “bacterial growth OD600” value was -0.011.
For `CCOC(=O)N1CCN(c2nncc(-c3ccc4ccccc4c3)n2)CC1`, the “bacterial growth OD600” value was -0.013.
In the case of `Cc1c(CN2Cc3ccccc3OC(c3ccccc3F)C2)cnn1C` (stereo not given), the “bacterial growth OD600” value is reported as 0.005.
`O=C(Nc1cccc(-c2ccc(F)cc2)c1)C1CCCN(C(=O)C2CCC2)C1` (stereo not given) was tested, and the “bacterial growth OD600” value was 0.001.
For `CN(Cc1cccc(C(F)(F)F)c1)C(=O)c1ccc2nc(C3CC3)oc2c1`, the “bacterial growth OD600” value was 0.003.
In the case of `O=C(C1CCCC1)N1CCCC(CCc2ccccc2F)C1` (stereo not given), the “bacterial growth OD600” value is reported as 0.003.
For `Cc1cc2c(c(-c3cnccn3)c1)OC(CNC(=O)/C=C/c1cccs1)C2` (stereo not given), the “bacterial growth OD600” value was 0.009.
`c1cc(C2CCCCC2)ccc1-c1cnnc(N2CCOCC2)n1` was tested, and the “bacterial growth OD600” value was 0.003.
With `CC(C)CS(=O)(=O)c1ncc(CN(C)C2CCCCC2)n1Cc1ccccc1` the “bacterial growth OD600” value was 0.002.
`COc1ccc(CC2(CCC(=O)NCCc3ccccc3C(F)(F)F)CCC(=O)N2)c2ccccc12` (stereo not given) was tested, and the “bacterial growth OD600” value was -0.049.
In the case of `C=CC[C@@H]1CC=C[C@@H](c2ccccc2)N1C(=O)CCC1(Cc2ccc(SC)cc2)CCC(=O)N1` (stereo not given in full), the “bacterial growth OD600” value is reported as 0.001.
For `O=C1N(CCCc2ccccc2)CCCC12CCN(c1ccccn1)C2` (stereo not given), the “bacterial growth OD600” value was 0.23.
`O=C(c1cccs1)N1CCc2[nH]nc(-c3cccc(F)c3)c2C1` was tested, and the “bacterial growth OD600” value was 0.006.
In the case of `Cc1cnccc1CNC(=O)C1(N(C)CCc2ccccc2)Cc2ccccc2C1`, the “bacterial growth OD600” value is reported as 0.001.
`CN(Cc1nccs1)C(=O)CC(c1ccccc1)c1cccc(Cl)c1` (stereo not given) was tested, and the “bacterial growth OD600” value was 0.288.
In the case of `CCC1CN(Cc2ccc(C(=O)OC)cc2)Cc2cc(OC)ccc2O1` (stereo not given), the “bacterial growth OD600” value is reported as 0.021.
In the case of `Cc1nc(CC(=O)N(Cc2ccncc2)Cc2cccc(OCCc3ccc(F)cc3)c2)cs1`, the “bacterial growth OD600” value is reported as 0.001.
With `COc1ccc(C(=O)N(Cc2ccc(OC)c(OCc3cccs3)c2)C2CCCC2)c(OC)c1` the “bacterial growth OD600” value was 0.005.
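Further: polymyxin B level opens the outer membrane while sparing the inner membrane, with novobiocin wells as reference growth inhibitor.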
